# In the supplement of paper PMC8728848:
# Some of the results follow.
# Key:
# Experiment in all cases: glycan array binding signal (z-score within array); higher = stronger binding
# Settings in all cases: glycan notation: IUPAC condensed, linker removed
# GalNAc(a1-3)Gal = target: GalNAc(a1-3)Gal
# Outline: (§1)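 Glycan array data came from 3228 arrays in the Consortium for Functional Glycomics database, and only arrays with an available protein sequence were kept. Glycan names were put into IUPAC-condensed notation, and columns mapping to the same glycan were averaged. The binding signal is a within-array Z-score, averaged across arrays of one protein sequence run at different concentrations or buffers and across linkers. A negative Z-score can be read as non-binding.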
# GalNAc(a1-3)GalNAc = target: GalNAc(a1-3)GalNAc
# Outline: as §1
# GalNAc(b1-3)Gal = target: GalNAc(b1-3)Gal
# Outline: as §1
# [1] = target: GalNAc(b1-3)Gal(a1-4)Gal(b1-4)GlcNAc
# Outline: as §1
# [2] = target: GalNAc(b1-3)Gal(a1-4)Gal(b1-4)GlcNAc(b1-3)Gal(b1-4)Glc
# Outline: as §1
# GalNAc(b1-3)GalNAc = target: GalNAc(b1-3)GalNAc
# Outline: as §1
# GalNAc(b1-4)GlcNAc = target: GalNAc(b1-4)GlcNAc
# Outline: as §1
# [3] = target: GalNAc(b1-4)GlcNAc(b1-2)Man(a1-3)[GalNAc(b1-4)GlcNAc(b1-2)Man(a1-6)]Man(b1-4)GlcNAc(b1-4)GlcNAc
# Outline: as §1
# Glc(a1-4)Glc = target: Glc(a1-4)Glc
# Outline: as §1
# Glc(a1-6)Glc(a1-6)Glc = target: Glc(a1-6)Glc(a1-6)Glc
# Outline: as §1
# Glc(b1-4)Glc = target: Glc(b1-4)Glc
# Outline: as §1
# Glc(b1-6)Glc = target: Glc(b1-6)Glc
# Outline: as §1
# GlcA(b1-3)Gal = target: GlcA(b1-3)Gal
# Outline: as §1
# GlcA(b1-3)GlcNAc = target: GlcA(b1-3)GlcNAc
# Outline: as §1
# GlcA(b1-6)Gal = target: GlcA(b1-6)Gal
# Outline: as §1
# [4] = target: GlcNAc(a1-3)Gal(b1-4)GlcNAc
# Outline: as §1
# [5] = target: GlcNAc(a1-4)Gal(b1-3)GlcNAc
# Outline: as §1
# [6] = target: GlcNAc(a1-4)Gal(b1-4)GalNAc
# Outline: as §1
# [7] = target: GlcNAc(a1-4)Gal(b1-4)GlcNAc
# Outline: as §1
# [8] = target: GlcNAc(a1-4)Gal(b1-4)GlcNAc(b1-3)Gal(b1-4)Glc
# Outline: as §1
# [9] = target: GlcNAc(a1-4)Gal(b1-4)GlcNAc(b1-3)Gal(b1-4)GlcNAc
# Outline: as §1
# [10] = target: GlcNAc(a1-4)Gal(b1-4)GlcNAc(b1-3)Gal(b1-4)GlcNAc(b1-3)Gal(b1-4)GlcNAc
# Outline: as §1
# [11] = target: GlcNAc(a1-4)Gal(b1-4)GlcNAc(b1-3)Gal(b1-4)[Fuc(a1-3)]GlcNAc(b1-3)Gal(b1-4)[Fuc(a1-3)]GlcNAc
# Outline: as §1
# [12] = target: GlcNAc(a1-6)Gal(b1-4)GlcNAc
# Outline: as §1
# [13] = target: GlcNAc(b1-2)Gal(b1-3)GalNAc
# Outline: as §1
# [14] = target: GlcNAc(b1-2)Man(a1-3)[GlcNAc(b1-2)Man(a1-6)]Man(b1-4)GlcNAc(b1-4)GlcNAc
# Outline: as §1
# [15] = target: GlcNAc(b1-2)Man(a1-3)[GlcNAc(b1-2)Man(a1-6)]Man(b1-4)GlcNAc(b1-4)[Fuc(a1-6)]GlcNAc
# Outline: as §1
# GlcNAc(b1-3)Gal = target: GlcNAc(b1-3)Gal
# Outline: as §1
# [16] = target: GlcNAc(b1-3)Gal(b1-3)GalNAc
# Outline: as §1
# GlcNAc(b1-3)Gal(b1-4)Glc = target: GlcNAc(b1-3)Gal(b1-4)Glc
# Outline: as §1
# [17] = target: GlcNAc(b1-3)Gal(b1-4)GlcNAc
# Outline: as §1
# [18] = target: GlcNAc(b1-3)Gal(b1-4)GlcNAc(b1-3)Gal(b1-4)GlcNAc
# Outline: as §1
# GlcNAc(b1-3)GalNAc = target: GlcNAc(b1-3)GalNAc
# Outline: as §1
# GlcNAc(b1-3)Man = target: GlcNAc(b1-3)Man
# Outline: as §1
# [19] = target: GlcNAc(b1-3)[GlcNAc(b1-4)][GlcNAc(b1-6)]GlcNAc
# Outline: as §1
# [20] = target: GlcNAc(b1-3)[GlcNAc(b1-6)]Gal(b1-4)GlcNAc
# Outline: as §1
# [21] = target: GlcNAc(b1-3)[GlcNAc(b1-6)]GalNAc
# Outline: as §1
# [22] = target: GlcNAc(b1-4)Gal(b1-4)GlcNAc
# Outline: as §1
binder,measurement,setting,value
"HHL-1 (Homo sapiens), P07306 (protein) TKEYQDLQHLDNEESDHHQLRKGPPPPQPLLQRLCSGPRLLLLSLGLSLLLLVVVCVIGSQNSQLQEELRGLRETFSNFTASTEAQVKGLSTQGGNVGRKMKSLESQLEKQQKDLSEDHSSLLLHVKQFVSDLRSLSCQMAALQGNGSERTCCPVNWVEHERSCYWFSRSGKAWADADNYCRLEDAHLVVVTSWEEQKFVQHHIGPVNTWMGLHDQNGPWKWVDGTDYETGFKNWRPEQPDDWYGHGLGGGEDCAHFTDDGRWNDDVCQRPYRWVCETELDKASQEPPLL",glycan array binding signal (z-score),GalNAc(a1-3)Gal,3.08
same,glycan array binding signal (z-score),GalNAc(a1-3)GalNAc,-0.502
same,glycan array binding signal (z-score),GalNAc(b1-3)Gal,4.09
same,glycan array binding signal (z-score),[1],5.53
same,glycan array binding signal (z-score),[2],5.52
same,glycan array binding signal (z-score),GalNAc(b1-3)GalNAc,0.08
same,glycan array binding signal (z-score),GalNAc(b1-4)GlcNAc,1.05
same,glycan array binding signal (z-score),[3],0.24
same,glycan array binding signal (z-score),Glc(a1-4)Glc,-0.386
same,glycan array binding signal (z-score),Glc(a1-6)Glc(a1-6)Glc,-0.559
same,glycan array binding signal (z-score),Glc(b1-4)Glc,-0.295
same,glycan array binding signal (z-score),Glc(b1-6)Glc,-0.414
same,glycan array binding signal (z-score),GlcA(b1-3)Gal,-0.5
same,glycan array binding signal (z-score),GlcA(b1-3)GlcNAc,-0.546
same,glycan array binding signal (z-score),GlcA(b1-6)Gal,-0.081
same,glycan array binding signal (z-score),[4],-0.151
same,glycan array binding signal (z-score),[5],0.841
same,glycan array binding signal (z-score),[6],-0.165
same,glycan array binding signal (z-score),[7],-0.521
same,glycan array binding signal (z-score),[8],-0.538
same,glycan array binding signal (z-score),[9],-0.562
same,glycan array binding signal (z-score),[10],-0.496
same,glycan array binding signal (z-score),[11],1.55
same,glycan array binding signal (z-score),[12],-0.516
same,glycan array binding signal (z-score),[13],-0.548
same,glycan array binding signal (z-score),[14],-0.487
same,glycan array binding signal (z-score),[15],0.484
same,glycan array binding signal (z-score),GlcNAc(b1-3)Gal,-0.562
same,glycan array binding signal (z-score),[16],1.54
same,glycan array binding signal (z-score),GlcNAc(b1-3)Gal(b1-4)Glc,-0.307
same,glycan array binding signal (z-score),[17],-0.387
same,glycan array binding signal (z-score),[18],0.833
same,glycan array binding signal (z-score),GlcNAc(b1-3)GalNAc,1.09
same,glycan array binding signal (z-score),GlcNAc(b1-3)Man,0.259
same,glycan array binding signal (z-score),[19],-0.553
same,glycan array binding signal (z-score),[20],-0.561
same,glycan array binding signal (z-score),[21],0.046
same,glycan array binding signal (z-score),[22],-0.498
